To fix the notation:
B1: OR4K15 (parent)
chain: GUUAACGGUCAUAGGCCAUGGAAACUAGGAGCACCAUUUCGCUGCCAGUGAAGAAAUGAACAAAGAAAAUCUGGGCCAGGCAGGCAUCAAAAGAAAUAGUCUUGCGCUCAACCAGAAAGUCUGUAAUCAUUUUAAGGGUA

The source gives no read counts; variants with many changes may rest on few reads.

This data set covers variants of B1. Description: self-cleavage, relative activity (ratio to wild type); higher = more cleavage; in vitro, sequencing; the parent is a self-cleaving ribozyme.
Consider U3C A47U A54G, for which the self-cleavage turned out to be 0.93.
The figure for U3C A11G A64G is 0.31.
The figure for U2C U57C A94G U100C A116G U139C is 1.52.
In the case of A4C U26A A92G, the self-cleavage was determined as 0.49.
Then A4G U19G U43A, with 2.41; and A4G A24G U37C A47U A51G U57C A126G, with 0.49; and A4G A24G A47G A54G U103C, with 0.66.
The figure for A5C A82G A86G is 0.46.
The figure for U2C U49C G104A is 0.02; for A5C A22G C42U it is 0.73.
As to A4G U19A U37C, the self-cleavage came to 0.74.
The figure for A4G A24U U38A C40U U43C A55U A86G is 0.75; for U2C U12C A60G A92G U120C U127C it is 0.43; for U2C U3C A68G A116G it is 0.51.
Then U3G A78G C121U U131C U132C, with 0.15.
Then A4G U108C A111G C112U A126U, with 0.06; and A4G A62G A114U U120A, with 0.08.
For A4G U39C C40U A82G A94G, the self-cleavage was 0.84.
Then U2C U57G U87A A90G A129G, with 0.87.
Then U3C U9C U49C A82G U102C U132C, with 0.85; and A4G A23G U26C A117G A118G, with 0.7; and A5C A78G U122C U139C, with 0.2.
With U3C U103C A116U, the self-cleavage amounted to 0.02.
For the variant U2G U38C G123A A126U, the self-cleavage was found to be 0.7.
The figure for U3C A27G A33G A51G A90G C107G is 0.04; for U3C U9A A47U U133A it is 0.25; for U2G U19A U43C U130C it is 0.27.
Then A4G A56G A90G U122C, with 0.25.
Consider U2C G41C U57A A78U A110G, for which the self-cleavage turned out to be 0.05.
The figure for U2C C17A A33G G44A A55C is 0.68; for U3C A24G A56G C85G it is 0.43.
The figure for U2C U26C A90G is 1.28; for U3C G8A G14A A82G U100C A111G it is 0.01.
The figure for A4G A52U U103C is 1.55; for A4G A23G A62G U133C it is 0.55.
For A4G A24U A51U A92G U130C, the self-cleavage was determined as 1.2.
For A4G A89U A110G A111G, the self-cleavage turned out to be 0.05.
The figure for A4G A23G U37C is 1.84; for U3C U12A U102A U103C it is 0.05; for U2C C6U C45U A47U A56G A63U A140G it is 1.63.
As for U3C A5G A24G, the self-cleavage turned out to be 0.92.
The figure for U3C A96G G104A is 0.05.
Turning to A4U A5U G7A A23G A59G U108C, the self-cleavage was found to be 0.11.
On to A4G U9C A59G, for which the self-cleavage worked out at 0.96.
The figure for U3C G106A C109U A126G is 0; for U2C U9C A60G A94G it is 1.17; for U2G A22G A60G it is 0.59.
Then U2C G14U A59U A95G A118G, with 0.73.
With A4G A60G A63G A94G, the self-cleavage was found to be 0.59.
Then A4G A24G A60G, with 1.8; and A4G A11G A36G A82G, with 0.72; and A4G A5C U19G U127C, with 0.55.
U3A U72C A134G: the self-cleavage amounted to 0.52.
Then U3A U19C G41A A62C, with 0.33; and U2G U87C U132G, with 0.81; and U2C U9A A52G, with 0.88.
Then U2G G7U A23G U43A A60G A68G, with 1.11.
Then A4G G8A U43C A59U A68C, with 1.31; and U2C U37C A59G A66U A78G U120C A125G, with 0.03; and A4G U26C U43C, with 0.65.
For U2C U38C A51G A62G C109A U131C, the self-cleavage worked out at 0.1.
The figure for U2C U38A A56G A92U A110G U132C is 0.24.
U2C U37C A95G: the self-cleavage came out at 1.18.
Then A4U A62U U108C A125G U132C, with 0.02.
The figure for U2G A24G U39A U49A is 0.88; for U3C A51G U102A A116U it is 0.23; for U3C A5U A51U A67G U70C A92G G136A it is 1.12.
U3C A23G U37C A125G U131C: the self-cleavage amounted to 1.02.
Then U3C U43C A86G, with 1.2; and U2C G79A A98U A117G A118G U130C, with 0.02.
The figure for U3C A110G A111G is 0.02.
Consider A4G U70C U120C, for which the self-cleavage came to 0.16.
The figure for U2C U57C U70C A118G is 0.26; for A4G A114U U132C it is 0.19.
In the case of A4G U9C A56G A66G, the self-cleavage worked out at 1.5.
Then U3C A36G U38C U72C, with 0.66; and A4C A36U A86C A135G, with 0.91; and A4U U102C A135C, with 1.53.
Then U3A A11G U37C C85G, with 0.1; and U3C A52G A114G, with 0.67.
The figure for A4U A51G A114G U122C A135G is 0; for U2G A47G U49G G84U A95G it is 0.27.
With U3C U38C A47U U102C, the self-cleavage was 1.33.

The values are drawn from the RNAGym collection of RNA variant scans (doi:10.7554/elife.90254).
